Where a name gives a salt, the structure may show the parent alone. The full ranking holds about 2,600 compounds; the median of “MBP+ mature oligodendrocyte number relative to DMSO vehicle control” is about -0.34, and the highest 2% start at about 13. The list shows a part of the results.
The compounds below were run on jimpy (Plp1 jimpy) mouse iPSC-derived oligodendrocyte progenitor cells (assay: MBP+ mature oligodendrocyte number relative to DMSO vehicle control (SDs above negative control mean); higher = more surviving jimpy oligodendrocytes (rescue)). Conditions: 10 µM; 3 days.
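Also: 10 µM single dose with 3-day oligodendrocyte differentiation.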

Row | SMILES | MBP+ mature oligodendrocyte number
1 | CCC(CC)(NC(=O)C(C)C)C(=O)N[C@@H](CCCN=C(N)N)C(=O)NC1(C(=O)NC(c2ccc(F)cc2)c2ccc(F)cc2)CCCC1 | 4.04
2 | CCN(CC)CCCN(c1ccccc1)C1Cc2ccccc2C1 [Aprindine hydrochloride] | 0.717
3 | COCCCOc1ccnc(C[S+]([O-])c2nc3ccccc3[nH]2)c1C (stereo not given) [Rabeprazole sodium] | 1.61
4 | Cc1cc(Nc2ncc(Cl)c(Nc3ccccc3S(=O)(=O)C(C)C)n2)c(OC(C)C)cc1C1CCNCC1 | < -6.35
5 | O=C(O)Cc1cc(I)c(Oc2ccc(O)c(I)c2)c(I)c1 [Tiratricol] | 3.28
6 | NS(=O)(=O)C#Cc1ccccc1 [Pifithrin-mu] | -2.1
7 | Nc1c(S(=O)(=O)O)cc(Nc2ccc(Nc3nc(Cl)nc(Nc4cccc(S(=O)(=O)O)c4)n3)c(S(=O)(=O)O)c2)c2c1C(=O)c1ccccc1C2=O [Reactive Blue 2] | 0.0387
8 | CSc1nc(N)c2ncn([C@@H]3O[C@H](COP(=O)(O)OP(=O)(O)O)[C@H](O)C3O)c2n1 (stereo not given in full) | -1.18
9 | Cc1ccc(C(=O)C(C)CN2CCCCC2)cc1 (stereo not given) [Tolperisone HCl] | 5.05
10 | CNCC[C@@H](Oc1ccccc1C)c1ccccc1 [Tomoxetine] | 0.61
11 | CNCC[C@@H](Oc1ccccc1C)c1ccccc1 [Atomoxetine HCl] | 1.53
12 | c1ccc(CN2CCC3(CCCc4ccccc43)CC2)cc1 [L-687,384 hydrochloride] | 0.735
13 | Cc1c(C(=O)NN2CCCCC2)nn(-c2ccc(Cl)cc2Cl)c1-c1ccc(Cl)cc1 [Rimonabant] | 1.14
14 | COc1cc2c(cc1OC)CC(=O)N(CCCN(C)C[C@H]1Cc3cc(OC)c(OC)cc31)CC2 [Ivabradine HCl] | 0.883
15 | C[C@H]1c2cccc(O)c2C(=O)C2=C(O)[C@]3(O)C(=O)C(C(N)=O)=C(O)[C@@H](N(C)C)[C@@H]3[C@@H](O)[C@@H]21 [Doxycycline hydrochloride] | 4.9
16 | C[C@H]1c2cccc(O)c2C(=O)C2=C(O)[C@]3(O)C(=O)C(C(N)=O)=C(O)[C@@H](N(C)C)[C@@H]3[C@@H](O)[C@@H]21 [Doxycycline HCl] | 3.76
17 | C[C@H]1c2cccc(O)c2C(=O)C2=C(O)[C@]3(O)C(=O)C(C(N)=O)=C(O)[C@@H](N(C)C)[C@@H]3[C@@H](O)[C@@H]21 [Doxycycline Hyclate] | 9.53
18 | Clc1ccc(C(Cn2ccnc2)OCc2ccsc2Cl)c(Cl)c1 (stereo not given) [Tioconazole] | 6.28
19 | O=C(O)CNC(=O)C(CS)Cc1ccccc1 (racemic) [DL-Thiorphan] | -0.604
20 | c1cnc(N2CCN(Cc3ccc4c(c3)OCO4)CC2)nc1 [Piribedil maleate] | 0.146

From the supplement of paper PMC6135742
